Measured values: the CheMixHub viscosity set
The source gives many values for each of these; only a part stands here.

Experiment: xn = mol fraction of the nth substance listed

OCCO + O
Conditions	viscosity [mPa·s]
293.15 K, 101 kPa, x1 = 0.045	1.46
293.15 K, 101 kPa, x1 = 0.104	2.25
293.15 K, 101 kPa, x1 = 0.162	2.98
293.15 K, 101 kPa, x1 = 0.225	3.96
293.15 K, 101 kPa, x1 = 0.322	5.178
293.15 K, 101 kPa, x1 = 0.404	7.1
293.15 K, 101 kPa, x1 = 0.5563	9.573
293.15 K, 101 kPa, x1 = 0.569	10.3
293.15 K, 101.33 kPa, x1 = 0.0312	1.279
293.15 K, 101.33 kPa, x1 = 0.0487	1.46
293.15 K, 101.33 kPa, x1 = 0.0677	1.646
293.15 K, 101.33 kPa, x1 = 0.1	1.99
293.15 K, 101.33 kPa, x1 = 0.1622	2.794
293.15 K, 101.33 kPa, x1 = 0.2	3.343
293.15 K, 101.33 kPa, x1 = 0.225	3.711
293.15 K, 101.33 kPa, x1 = 0.3003	4.917
293.15 K, 101.33 kPa, x1 = 0.4038	6.825
293.15 K, 101.33 kPa, x1 = 0.5373	9.656
293.15 K, 101.33 kPa, x1 = 0.7232	13.71
298 K, 101.3 kPa, x1 = 0.068	1.35
298 K, 101.3 kPa, x1 = 0.16	2.23
298 K, 101.3 kPa, x1 = 0.54	8.14
298.15 K, 100 kPa, x1 = 0.2	2.925
298.15 K, 100 kPa, x1 = 0.4	5.764
298.15 K, 100 kPa, x1 = 0.6	9.207
298.15 K, 100 kPa, x1 = 0.8	13.1
298.15 K, 101.33 kPa, x1 = 0.04551	1.26
298.15 K, 101.33 kPa, x1 = 0.1256	1.62
298.15 K, 101.33 kPa, x1 = 0.1927	2.86
298.15 K, 101.33 kPa, x1 = 0.2218	3.2
298.15 K, 101.33 kPa, x1 = 0.3108	4.49
298.15 K, 101.33 kPa, x1 = 0.3983	6.23
298.15 K, 101.33 kPa, x1 = 0.474	9.2
302.25 K, 101 kPa, x1 = 0.458	5.8
302.35 K, 101 kPa, x1 = 0.088	1.448
302.75 K, 101 kPa, x1 = 0.224	2.732
303.15 K, 101 kPa, x1 = 0.01	0.857
303.15 K, 101 kPa, x1 = 0.02	0.929
303.15 K, 101 kPa, x1 = 0.0299	0.996
303.15 K, 101 kPa, x1 = 0.0376	1.056
303.15 K, 101 kPa, x1 = 0.0399	1.062
303.15 K, 101 kPa, x1 = 0.05	1.132
303.15 K, 101 kPa, x1 = 0.06	1.212
303.15 K, 101 kPa, x1 = 0.07	1.292
303.15 K, 101 kPa, x1 = 0.08	1.371
303.15 K, 101 kPa, x1 = 0.1001	1.534
303.15 K, 101 kPa, x1 = 0.1755	2.191
303.15 K, 101 kPa, x1 = 0.5563	6.637
303.15 K, 101.33 kPa, x1 = 0.0487	1.181
303.15 K, 101.33 kPa, x1 = 0.0677	1.317
303.15 K, 101.33 kPa, x1 = 0.1	1.577
303.15 K, 101.33 kPa, x1 = 0.1622	2.131
303.15 K, 101.33 kPa, x1 = 0.2	2.496
303.15 K, 101.33 kPa, x1 = 0.225	2.764
303.15 K, 101.33 kPa, x1 = 0.3003	3.595
303.15 K, 101.33 kPa, x1 = 0.4038	4.866
303.15 K, 101.33 kPa, x1 = 0.5373	6.671
303.15 K, 101.33 kPa, x1 = 0.7232	9.406
308.15 K, 101 kPa, x1 = 0.01	0.772
308.15 K, 101 kPa, x1 = 0.02	0.836
308.15 K, 101 kPa, x1 = 0.0299	0.893
308.15 K, 101 kPa, x1 = 0.0399	0.95
308.15 K, 101 kPa, x1 = 0.05	1.01
308.15 K, 101 kPa, x1 = 0.06	1.079
308.15 K, 101 kPa, x1 = 0.08	1.215
308.15 K, 101 kPa, x1 = 0.0899	1.283
308.15 K, 101 kPa, x1 = 0.1001	1.354
312.65 K, 101 kPa, x1 = 0.458	4.207
312.75 K, 101 kPa, x1 = 0.224	2.069
313.15 K, 101 kPa, x1 = 0.01	0.699
313.15 K, 101 kPa, x1 = 0.02	0.756
313.15 K, 101 kPa, x1 = 0.0299	0.807
313.15 K, 101 kPa, x1 = 0.0376	0.8523
313.15 K, 101 kPa, x1 = 0.0399	0.856
313.15 K, 101 kPa, x1 = 0.05	0.908
313.15 K, 101 kPa, x1 = 0.06	0.969
313.15 K, 101 kPa, x1 = 0.07	1.026
313.15 K, 101 kPa, x1 = 0.0744	1.067
313.15 K, 101 kPa, x1 = 0.08	1.086
313.15 K, 101 kPa, x1 = 0.088	1.125
313.15 K, 101 kPa, x1 = 0.0899	1.145
313.15 K, 101 kPa, x1 = 0.1001	1.205
313.15 K, 101 kPa, x1 = 0.1209	1.343
313.15 K, 101 kPa, x1 = 0.1755	1.704
313.15 K, 101 kPa, x1 = 0.5563	4.838
313.15 K, 101.33 kPa, x1 = 0.0312	0.8238
313.15 K, 101.33 kPa, x1 = 0.0487	0.9179
313.15 K, 101.33 kPa, x1 = 0.0677	1.034
313.15 K, 101.33 kPa, x1 = 0.1	1.244
313.15 K, 101.33 kPa, x1 = 0.1622	1.634
313.15 K, 101.33 kPa, x1 = 0.2	2.074
313.15 K, 101.33 kPa, x1 = 0.225	2.116
313.15 K, 101.33 kPa, x1 = 0.3003	2.789
313.15 K, 101.33 kPa, x1 = 0.4038	3.613
313.15 K, 101.33 kPa, x1 = 0.5373	4.906
313.15 K, 101.33 kPa, x1 = 0.7232	6.737
318.15 K, 101 kPa, x1 = 0.01	0.64
318.15 K, 101 kPa, x1 = 0.02	0.69
318.15 K, 101 kPa, x1 = 0.0299	0.733
318.15 K, 101 kPa, x1 = 0.0399	0.777
318.15 K, 101 kPa, x1 = 0.05	0.822
318.15 K, 101 kPa, x1 = 0.06	0.876
318.15 K, 101 kPa, x1 = 0.07	0.927
318.15 K, 101 kPa, x1 = 0.08	0.976
318.15 K, 101 kPa, x1 = 0.0899	1.03
318.15 K, 101 kPa, x1 = 0.1001	1.083
323.15 K, 100 kPa, x1 = 0.2	1.468
323.15 K, 100 kPa, x1 = 0.4	2.638
323.15 K, 100 kPa, x1 = 0.6	3.948
323.15 K, 100 kPa, x1 = 0.8	5.303
323.15 K, 101 kPa, x1 = 0.01	0.587
323.15 K, 101 kPa, x1 = 0.02	0.63
323.15 K, 101 kPa, x1 = 0.0299	0.671
323.15 K, 101 kPa, x1 = 0.0376	0.7163
323.15 K, 101 kPa, x1 = 0.0399	0.709
323.15 K, 101 kPa, x1 = 0.05	0.75
323.15 K, 101 kPa, x1 = 0.06	0.795
323.15 K, 101 kPa, x1 = 0.07	0.842
323.15 K, 101 kPa, x1 = 0.0744	0.8672
323.15 K, 101 kPa, x1 = 0.08	0.887
323.15 K, 101 kPa, x1 = 0.0899	0.933
323.15 K, 101 kPa, x1 = 0.1001	0.978
323.15 K, 101 kPa, x1 = 0.1209	1.09
323.15 K, 101 kPa, x1 = 0.1755	1.367
323.15 K, 101 kPa, x1 = 0.322	2.175
323.15 K, 101 kPa, x1 = 0.5563	3.662
